# From publication PMC6919601, “Identification of Plasmodium dipeptidyl aminopeptidase allosteric inhibitors by high throughput screening” (PLoS ONE, 2019)
# In all, about 110,000 compounds went through this assay and about 230 (0.21%) showed an effect of 50% or more. The list shows a part of the results.
# Molecular target: DPAP1 (Plasmodium falciparum, UniProt Q8IIJ9)
# Assay: primary screen, percent inhibition; read by cleavage of a fluorogenic dipeptide substrate; higher = more effect of the substance
# Set-up: species or system P. falciparum D10 trophozoite lysates; single well
# 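Further: 30 min substrate incubation versus DMSO and 10 µM JCP410 controls.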
# Chain of DPAP1 (Q8IIJ9 whole entry, looked up): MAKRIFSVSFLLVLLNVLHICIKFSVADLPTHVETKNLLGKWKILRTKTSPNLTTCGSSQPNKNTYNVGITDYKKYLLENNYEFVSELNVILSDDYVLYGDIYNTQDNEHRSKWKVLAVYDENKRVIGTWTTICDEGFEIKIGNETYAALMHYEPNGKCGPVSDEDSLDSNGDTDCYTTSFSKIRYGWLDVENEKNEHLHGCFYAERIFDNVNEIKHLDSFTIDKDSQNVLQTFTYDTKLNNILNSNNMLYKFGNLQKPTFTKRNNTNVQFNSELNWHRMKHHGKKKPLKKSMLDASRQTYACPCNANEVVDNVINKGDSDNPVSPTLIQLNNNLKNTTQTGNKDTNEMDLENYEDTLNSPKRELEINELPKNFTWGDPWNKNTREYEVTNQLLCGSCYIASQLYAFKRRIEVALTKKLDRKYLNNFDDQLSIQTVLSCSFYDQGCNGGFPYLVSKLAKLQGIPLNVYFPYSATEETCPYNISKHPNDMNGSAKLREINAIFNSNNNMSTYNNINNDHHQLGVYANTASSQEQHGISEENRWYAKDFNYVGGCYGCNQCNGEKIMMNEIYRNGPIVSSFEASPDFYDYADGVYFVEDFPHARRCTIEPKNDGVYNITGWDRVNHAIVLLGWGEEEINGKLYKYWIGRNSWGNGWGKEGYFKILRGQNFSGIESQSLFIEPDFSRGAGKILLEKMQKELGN
row,SMILES,% Inhibition @ 10 uM [%]
1,O=C(O)CCC(=O)Nc1sc2c(c1C(=O)Nc1ccc(Cl)cc1)CCCCC2,23.7
2,O[C@]12CCCC[C@@H]1[C@@H](c1ccncc1)NCC2,-0.0372
3,CCOC(=O)c1cc2c(=O)n3ccccc3nc2n(CC(C)C)/c1=N/C(=O)c1ccc2ccccc2c1,2.84
4,S=C(NCc1ccco1)Nc1ccccc1,-5.48
5,Cc1ccc(CNC(=O)CNS(=O)(=O)c2ccc3nc(C)sc3c2)cc1,-6.09
6,CCOC(=O)C1=C(CSc2ccc(Cl)cc2)NC(=O)NC1c1cc(C)ccc1C (centres unmarked),1.51
7,Cn1c(=O)c2c(ncn2Cc2cccc(C(F)(F)F)c2)n(C)c1=O,9.83
8,O=C(Nc1cccnc1)c1ccc(CNS(=O)(=O)c2cccc(C(F)(F)F)c2)cc1,3.72
9,O=C(Nc1cccc(Cl)c1)N1CCN(c2ccc([N+](=O)[O-])cc2)CC1,-4.94
10,Brc1ccccc1-c1nnc2sc(Cc3ccccc3)nn12,-4.02
11,O=C1NC(=O)/C(=C/c2ccc(-c3cccc(Cl)c3Cl)o2)N1,-1.25
12,CCOC(=O)c1c(C)[nH]c(C)c1S(=O)(=O)N1CCC2(CC1)OCCO2,-2.15
13,CCOc1cccc(C2C(C#N)=C(N)Oc3[nH]nc(C)c32)c1OCc1ccc(Cl)cc1 (centres unmarked),5.31
14,CCOC(=O)C1=C(C)OC(N)=C(C#N)C1c1ccc(SC)cc1 (centres unmarked),3.03
15,CN(C)S(=O)(=O)c1ccc(-c2cs/c(=N\c3ccccc3)n2CCN2CCOCC2)cc1,-2.46
16,CC(=O)c1ccc(-n2nncc2C(C)(C)C)cc1,5.63
17,Cc1cc(C)n(Cc2ccc(C(=O)Nc3ccc(Br)cc3C)o2)n1,-3.37
18,COc1ccc(C2=NN(C(C)=O)C(c3ccccc3F)C2)cc1OC (centres unmarked),-1.42
19,Cc1ccc(NC(=O)c2ccc(C)o2)c(Br)c1,-3.26
20,Cc1ccc(S(=O)(=O)CC2CC2(Cl)Cl)cc1 (centres unmarked),-1.81
21,CC(=O)N1N=C(c2ccc(O)cc2)CC1c1c(Cl)cccc1Cl (centres unmarked),-0.0938
22,CSc1ccc2ccccc2[n+]1C,-0.615
23,Cc1cc(=O)n(Cc2ccccn2)c2c1c(C)nn2-c1cccc(F)c1,5.73
24,C#CCSc1nc2ccccc2c(=O)n1CC,-1.02
25,COc1ccc(C(=O)NC2CCCCC2NC(=O)c2ccc(OC)cc2)cc1 (centres unmarked),-1.88

row,SMILES,% Inhibition @ 10 uM [%]
1,COc1ccccc1C(=O)N/C(=C\c1ccccc1)C(=O)NC(Cc1ccccc1)C(=O)O (centres unmarked),-6.9
2,CCS(=O)(=O)N1CCC2(CC1)OC(=O)C(C)=C2C(=O)N1CCN(c2ccccn2)CC1,1.71
3,COc1cc(C2CC3=Nc4ccccc4NC(c4ccc(O)cc4)C3=C(O)C2)cc(OC)c1OC (centres unmarked),2.69
4,CC(C)(C)c1ccc(C(=O)Nc2cc(Cl)ccc2Cl)cc1,5.1
5,COc1ccc(C(=O)Nc2nc3c(s2)CCc2ccccc2-3)cc1,-1.95
6,CCc1ccc(/C=C/C(=O)c2cc3cccc(OC)c3oc2=O)cc1,9.02
7,O=C1NC(c2ccc(F)cc2)(C(F)(F)F)C(=O)N1c1cccnc1 (centres unmarked),-4.11
8,COc1ccc(CNS(=O)(=O)c2c[nH]cn2)cc1,4.51
9,CO/C(O)=C1\C(C)=NC2=C(C(=O)CCC2)C1c1ccc(Cl)cc1Cl (centres unmarked),4.38
10,CC(C)CC(C(=O)O)N1C(=O)c2cc(Cl)c(Cl)cc2C1=O (centres unmarked),-7.15
11,COC(=O)c1sc(NC(=O)COc2ccc(Cl)cc2)nc1C,-1.25
12,CCc1c(-c2ccccc2)nc(N)c(C#N)c1-c1cccs1,-3.13
13,O=C(CN1C(=O)C2C3C=CC(C3)C2C1=O)Nc1nccs1 (centres unmarked),-0.85
14,CC(CNC(=O)Cn1ncc2c3ccccc3n(Cc3ccccc3)c2c1=O)c1ccccc1 (centres unmarked),1.8
15,O=C(O)C1CCCCC1C(=O)Nc1ccccc1C(=O)N1CCN(c2ccc(F)cc2)CC1 (centres unmarked),-0.95
16,CCOC(=O)N1CCN(c2nc3ccc(C)cc3n3nnnc23)CC1,-0.416
17,CN(C)CCN(C)Cc1c(F)cccc1Cl,-2.44
18,CC(N)Cc1ccccc1S(=O)c1ccccc1 (centres unmarked),-0.981
19,COc1ccc2c(c1)CCC1=C2N=C(S)NC1c1ccccc1 (centres unmarked),3.15
20,CCCc1ccc(OCC(=O)O)cc1,3.44
21,CN1CCCN(C2CCC(C(C)(C)C)CC2)CC1 (centres unmarked),-0.0908
22,CCOc1cccc(NC(=O)C2CC(=O)N(c3ccc(Cl)cc3)C2)c1 (centres unmarked),-14.4
23,NC(=O)Cc1c[nH]c2cccc(O)c12,4.73
24,Cc1[nH]c(C)c(S(=O)(=O)N(C)Cc2ccccc2)c1C(=O)N1CCCC1,-5.91
25,CC1(C)C(=O)C(C)(C)C12SCC1C(=O)N(Cc3ccccc3)C(=O)C12 (centres unmarked),-3.41
